Our source for the cell viability values is the supplement of paper PMC6206098.

A word on the cell viability: it is a read-out of living cells in per cent, often relative to untreated cells.

± gives the uncertainty stated by the source. Shown are siRNA guide strands that differ only in the seed, positions 2 to 7.

Data set [1] relates to 3LL. Nature of the data set: cell viability relative to siNT1 control; higher = less toxic. As to conditions: concentration: 10 nM; 96 h; Mus musculus.
Data set [2] concerns H460. Nature of the data set: cell viability relative to lipid-only control; HeyA8 human ovarian and H460 human lung cancer; M565 mouse liver and 3LL mouse lung cancer; siNT1 is a non-toxic control siRNA; higher = less toxic. The following applies: concentration: 10 nM; 96 h; Homo sapiens.
Data set [3] deals with HeyA8. Described as above. The following applies: concentration: 10 nM; 96 h; Homo sapiens.
The test system of data set [4] is M565. The description is as above. The following applies: concentration: 10 nM; 96 h; Mus musculus.
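For cell viability relative to lipid-only control in this document: reverse lipid transfection in 384-well plates, in triplicate, of duplexes on a non-toxic 19mer backbone with passenger strand 2′-O-methylated at positions 1 and 2, luminescence viability read-out.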
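For cell viability relative to siNT1 control in this document: Luminescence-based viability of cells reverse transfected in 384-well plates with lipid-complexed siRNAs built on a non-toxic 19mer backbone whose passenger strand carries 2′-O-methyl groups at positions 1 and 2, triplicates.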

In the case of UCAUCGAACAUGUAAACCAAA, the cell viability is 92.4 ± 7.4% in data set [1], 53.5 ± 2.9% in data set [2], 59.4 ± 7.6% in data set [3] and 59.4 ± 7.3% in data set [4].
UGUGUAUACAUGUAAACCAAA: the cell viability in data set [1] came to 64.5 ± 12%; in data set [2], 55.5 ± 2.6%; in data set [3] it was 36.1 ± 4.3%; in data set [4] it was 12.4 ± 3%.
With UAAAACUACAUGUAAACCAAA, the cell viability was 107 ± 8.3% in data set [1], 87.6 ± 8.6% in data set [2], 104 ± 7.5% in data set [3] and 106 ± 18% in data set [4].
Turning to UAUCUGCACAUGUAAACCAAA, the cell viability in data set [1] came out at 33.4 ± 1.8%; in data set [2], 43.8 ± 3.7%; in data set [3] it was 80.5 ± 1.6%; in data set [4] it was 46.6 ± 9.3%.
For UCGCUUAACAUGUAAACCAAA, the cell viability in data set [1] was found to be 101 ± 21%; in data set [2], 71.6 ± 11%; in data set [3], 83 ± 2%; in data set [4], 79.8 ± 7%.
In the same order, the values of UGCGCGAACAUGUAAACCAAA are 95.2 ± 16%, 88.8 ± 6.9%, 67.3 ± 6.9% and 66.1 ± 2.4%.
The corresponding values for UUAAAACACAUGUAAACCAAA are 87.8 ± 6.5%, 60.8 ± 5.6%, 100 ± 5.2% and 106 ± 11%.
With UAUAUAGACAUGUAAACCAAA, the cell viability in data set [1] worked out at 94.8 ± 21%; in data set [2], 64.5 ± 3.4%; in data set [3] it was 98.8 ± 10%; in data set [4], 105 ± 15%.
Take UACCGAUACAUGUAAACCAAA: the cell viability in data set [1] is 67.4 ± 3.2%; in data set [2] it was 66 ± 15%; in data set [3] it was 81.6 ± 13%; in data set [4] it was 46.1 ± 5.5%.
The corresponding values for UAAUAAAACAUGUAAACCAAA are 122 ± 9.8%, 112 ± 5.2%, 101 ± 3.8% and 89.9 ± 16%.
For UCUGCUUACAUGUAAACCAAA, the cell viability was determined as 99.5 ± 10% in data set [1], 68.3 ± 4.7% in data set [2], 94.4 ± 8.2% in data set [3] and 87 ± 18% in data set [4].
For the sequence UCGCUUCACAUGUAAACCAAA, the cell viability in data set [1] is 76.6 ± 19%; in data set [2], 60 ± 7.6%; in data set [3] it was 50.1 ± 2.2%; in data set [4], 29.7 ± 3%.
On to UACAAUCACAUGUAAACCAAA, for which the cell viability was determined as 88.6 ± 6.7% in data set [1], 74.7 ± 4.9% in data set [2], 12.3 ± 1.5% in data set [3] and 83.2 ± 4.3% in data set [4].
As to UCCACCAACAUGUAAACCAAA, the cell viability in data set [1] is 102 ± 11%; in data set [2], 55.8 ± 6.3%; in data set [3] it was 79.9 ± 7.8%; in data set [4] it was 50.7 ± 15%.
Turning to UACUUUCACAUGUAAACCAAA, the cell viability amounted to 72.5 ± 20% in data set [1], 55.2 ± 1.9% in data set [2], 48.3 ± 8.3% in data set [3] and 81.4 ± 14% in data set [4].
With UUAGGAAACAUGUAAACCAAA, the cell viability in data set [1] came out at 86.4 ± 5.7%; in data set [2], 77.5 ± 6.2%; in data set [3] it was 87.2 ± 6.3%; in data set [4], 87.9 ± 12%.
As to UAUGGAGACAUGUAAACCAAA, the cell viability came to 107 ± 15% in data set [1], 76.2 ± 8.6% in data set [2], 93.2 ± 8.3% in data set [3] and 80.2 ± 22% in data set [4].
Consider UUACUCGACAUGUAAACCAAA, for which the cell viability in data set [1] came out at 85.1 ± 8%; in data set [2], 88.3 ± 3.3%; in data set [3], 82 ± 7%; in data set [4], 35.4 ± 4.7%.
Consider UAUCUAGACAUGUAAACCAAA, for which the cell viability amounted to 111 ± 11% in data set [1], 38.4 ± 2.8% in data set [2], 89.8 ± 2.4% in data set [3] and 89.3 ± 14% in data set [4].
As to UUGCAGAACAUGUAAACCAAA, the cell viability in data set [1] is 67.9 ± 5.7%; in data set [2], 69.6 ± 6.8%; in data set [3], 77 ± 1.3%; in data set [4], 65.2 ± 11%.
With UUCCAUUACAUGUAAACCAAA, the cell viability is 94.1 ± 29% in data set [1], 69.7 ± 1.1% in data set [2], 92.6 ± 7.9% in data set [3] and 91.3 ± 7% in data set [4].
UCGAAGGACAUGUAAACCAAA: the cell viability in data set [1] turned out to be 89.9 ± 17%; in data set [2], 74.8 ± 19%; in data set [3] it was 79.5 ± 6.7%; in data set [4], 76.7 ± 4.8%.
In the same order, the values of UGCAUCCACAUGUAAACCAAA are 27.7 ± 0.34%, 54.8 ± 3.8%, 47.5 ± 5.6% and 25.8 ± 1.5%.
The corresponding values for UGGGAUGACAUGUAAACCAAA are 53 ± 9.9%, 39.9 ± 3.5%, 12.1 ± 0.26% and 23 ± 8.8%.
UACAACCACAUGUAAACCAAA: the cell viability was 21.1 ± 1.6% in data set [1], 37 ± 3.2% in data set [2], 40.8 ± 2% in data set [3] and 15.2 ± 0.47% in data set [4].
For UGGGACCACAUGUAAACCAAA, the cell viability worked out at 16 ± 3.8% in data set [1], 67.9 ± 17% in data set [2], 84.1 ± 4.2% in data set [3] and 6.03 ± 1.3% in data set [4].
In the same order, the values of UCGCAGUACAUGUAAACCAAA are 73 ± 21%, 68.2 ± 3.3%, 55 ± 1.9% and 53.2 ± 5.4%.
The corresponding values for UAGAUCCACAUGUAAACCAAA are 21.8 ± 3.3%, 55 ± 8.2%, 62.2 ± 7.8% and 16.3 ± 2.3%.
UAGAGAAACAUGUAAACCAAA: the cell viability was 82.9 ± 5% in data set [1], 68 ± 8.5% in data set [2], 90.9 ± 6.2% in data set [3] and 69.8 ± 4.2% in data set [4].
